# According to article PMC11995724, “Antibiotic target discovery by integrated phenotypic and activity-based profiling of electrophilic fragments” (Cell chemical biology, 2025):
# Screen size: about 3,200 compounds; about 110 (3.4%) showed an effect of 50% or more. Some of the results follow.
# Test system: T1, V. cholerae SAD30
# T1 construct: SAD30
# Set-up: species or system S. aureus MSSA476 (TSB) or V. cholerae SAD30 (LB); 384-well bacterial growth screen at 25 uM, OD600 relative to DMSO control
# Conditions: relative growth, OD600, LB; 25 µM; inhibitor
row,Compound,% of control remaining [%]
1,"COC(=O)c1sccc1N1C(=O)C=CC1=O [10-A07, methyl 3-(2,5-dioxo-2,5-dihydro-1H-pyrrol-1-yl)thiophene-2-carboxylate]",26.4952
2,"C=CC(=O)N(C)CC(=O)NC1CCN(C(=O)c2ccc(C)cc2)CC1 [2-N14, N-methyl-N-({[1-(4-methylbenzoyl)piperidin-4-yl]carbamoyl}methyl)prop-2-enamide]",87.4168
3,"CC(Cl)C(=O)N1CCN(Cc2cnn(-c3ccccc3)c2)CC1 (centres unmarked) [7-F13, 2-chloro-1-{4-[(1-phenyl-1H-pyrazol-4-yl)methyl]piperazin-1-yl}propan-1-one]",72.2947
4,"CCC(NC(=O)CCl)c1cccc(OC)n1 (centres unmarked) [7-D08, 2-chloro-N-[1-(6-methoxypyridin-2-yl)propyl]acetamide]",84.8505
5,"Cc1ccc(NC(=O)CCl)cc1S(=O)(=O)N1CCOCC1 [4-L07, 2-chloro-N-[4-methyl-3-(morpholine-4-sulfonyl)phenyl]acetamide]",104.55
6,"O=CN1CCN(C(=O)CCl)CC1 [6-M17, 4-(2-chloroacetyl)piperazine-1-carbaldehyde]",91.0039
7,"Cc1cc(C)c(NC(=O)C(C#N)=Cc2ccccc2)c(C)c1 [8-E19, 2-cyano-3-phenyl-N-(2,4,6-trimethylphenyl)prop-2-enamide]",73.7593
8,"CCc1nc2c(s1)C(N(C)C(=O)C(C)Cl)CCC2 (centres unmarked) [7-N17, 2-chloro-N-(2-ethyl-4,5,6,7-tetrahydro-1,3-benzothiazol-7-yl)-N-methylpropanamide]",75.2024
9,"N#CC(=Cc1ccc([N+](=O)[O-])cc1)C(=O)Nc1ccc(Cl)cc1 [8-O11, N-(4-chlorophenyl)-2-cyano-3-(4-nitrophenyl)prop-2-enamide]",68.7288
10,"O=C(CCl)NCc1cn[nH]c1C(F)F [7-D05, 2-chloro-N-{[5-(difluoromethyl)-1H-pyrazol-4-yl]methyl}acetamide]",91.5909
11,"C=CC(=O)NC1CC2CCC(C1)S2 (centres unmarked) [1-B06, N-{8-thiabicyclo[3.2.1]octan-3-yl}prop-2-enamide]",104.024
12,"C=CC(=O)NCc1nc(OC)cc(OC)n1 [2-M20, N-[(4,6-dimethoxypyrimidin-2-yl)methyl]prop-2-enamide]",92.5118
13,"N#CC(=Cc1ccc(Oc2cnccn2)cc1)C(=O)NC1CCCC1 [9-F20, 2-cyano-N-cyclopentyl-3-[4-(pyrazin-2-yloxy)phenyl]prop-2-enamide]",83.2767
14,"CC(Cl)C(=O)NCc1nnnn1CC1CC1 (centres unmarked) [6-F14, 2-chloro-N-{[1-(cyclopropylmethyl)-1H-1,2,3,4-tetrazol-5-yl]methyl}propanamide]",80.2351
15,"COc1cc(OC)c(NC(=O)CCl)cc1Cl [4-G11, 2-chloro-N-(5-chloro-2,4-dimethoxyphenyl)acetamide]",92.8186
16,"C=CC(=O)NCCN1CCn2nccc2C1 [3-F21, N-(2-{4H,5H,6H,7H-pyrazolo[1,5-a]pyrazin-5-yl}ethyl)prop-2-enamide]",96.5006
17,"CC(Cl)C(=O)N1CCN(C)C(c2nc(C3CC3)no2)C1 (centres unmarked) [7-I08, 2-chloro-1-[3-(3-cyclopropyl-1,2,4-oxadiazol-5-yl)-4-methylpiperazin-1-yl]propan-1-one]",78.903
18,"Cc1ccc(C)c(-c2cc(NC(=O)CCl)n(-c3ccccc3)n2)c1 [4-M14, 2-chloro-N-[3-(2,5-dimethylphenyl)-1-phenyl-1H-pyrazol-5-yl]acetamide]",99.8922
19,"CCC(c1cc(Cl)cc(Cl)c1)N(C)C(=O)CCl (centres unmarked) [7-L10, 2-chloro-N-[1-(3,5-dichlorophenyl)propyl]-N-methylacetamide]",75.0702
20,"COCC(C)NC(=O)C(C#N)=Cc1cccc(F)c1F (centres unmarked) [9-F09, 2-cyano-3-(2,3-difluorophenyl)-N-(1-methoxypropan-2-yl)prop-2-enamide]",89.8029
21,"CC(Cl)C(=O)N1CCC(c2nc(C3CC3)no2)(C(F)(F)F)C1 (centres unmarked) [7-K12, 2-chloro-1-[3-(3-cyclopropyl-1,2,4-oxadiazol-5-yl)-3-(trifluoromethyl)pyrrolidin-1-yl]propan-1-one]",76.2597
22,"Cc1cc(C(C)N(Cc2c(C)noc2C)C(=O)CCl)c(C)o1 (centres unmarked) [5-E16, 2-chloro-N-[(3,5-dimethyl-1,2-oxazol-4-yl)methyl]-N-[1-(2,5-dimethylfuran-3-yl)ethyl]acetamide]",91.6255

row,Compound,% of control remaining [%]
1,"CCOc1ccccc1NC(=O)C(C#N)=Cc1c(F)cccc1F [8-G21, 2-cyano-3-(2,6-difluorophenyl)-N-(2-ethoxyphenyl)prop-2-enamide]",75.2549
2,"CNC(=O)c1ccc(O)c(NC(=O)CCl)c1 [5-C10, 3-(2-chloroacetamido)-4-hydroxy-N-methylbenzamide]",93.1386
3,"CC(C#N)CSc1ccccc1NC(=O)CCl (centres unmarked) [6-K16, 2-chloro-N-{2-[(2-cyano-2-methylethyl)sulfanyl]phenyl}acetamide]",86.757
4,"COc1ccc(Cl)cc1C(O)CNC(=O)CCl (centres unmarked) [7-N06, 2-chloro-N-[2-(5-chloro-2-methoxyphenyl)-2-hydroxyethyl]acetamide]",88.8155
5,"Cc1ccc(C)c(N2C(=O)C=CC2=O)c1 [10-F13, 1-(2,5-dimethylphenyl)-2,5-dihydro-1H-pyrrole-2,5-dione]",31.3267
6,"C=CC(=O)N1CCC(C(=O)NC2CCc3ncnn3C2)CC1 (centres unmarked) [2-P20, 1-(prop-2-enoyl)-N-{5H,6H,7H,8H-[1,2,4]triazolo[1,5-a]pyridin-6-yl}piperidine-4-carboxamide]",97.2981
7,"CC(C)(C)c1ccc(C=C(C#N)C(=O)Nc2ccc(C(=O)O)cc2)cc1 [9-I21, 4-[3-(4-tert-butylphenyl)-2-cyanoprop-2-enamido]benzoic acid]",98.9123
8,"Cc1cn2c(C=C(C#N)C(=O)Nc3c(C)cccc3C)c(C)nc2s1 [9-N19, 2-cyano-3-{2,6-dimethylimidazo[2,1-b][1,3]thiazol-5-yl}-N-(2,6-dimethylphenyl)prop-2-enamide]",83.2767
9,"CC1=C(C#N)C(=O)N(C)C(=O)C1=Cc1ccc(-c2ccc(F)cc2)o1 [9-I18, 5-{[5-(4-fluorophenyl)furan-2-yl]methylidene}-1,4-dimethyl-2,6-dioxo-1,2,5,6-tetrahydropyridine-3-carbonitrile]",86.4038
10,"CC(Cl)C(=O)N[C@H]1CCO[C@@H]1c1nccn1-c1ccccc1 (mixture of isomers) [7-A12, rac-2-chloro-N-[(2R,3R)-2-(1-phenyl-1H-imidazol-2-yl)oxolan-3-yl]propanamide]",85.1148
11,"CC(Cl)C(=O)N1CCCC1Cc1cccc(F)c1F (centres unmarked) [7-E19, 2-chloro-1-{2-[(2,3-difluorophenyl)methyl]pyrrolidin-1-yl}propan-1-one]",66.4794
12,"C=CC(=O)Nc1ccccc1CCC(N)=O [1-A18, N-[2-(2-carbamoylethyl)phenyl]prop-2-enamide]",86.6966
13,"CC(Cl)C(=O)N1CCN(C(=O)CN2C(=O)CCC2=O)CC1 (centres unmarked) [6-B11, 1-{2-[4-(2-chloropropanoyl)piperazin-1-yl]-2-oxoethyl}pyrrolidine-2,5-dione]",80.2351
14,"C=CC(=O)Nc1ccc(C(=O)N2CCC(C(C)C)CC2)cc1 [3-B15, N-{4-[4-(propan-2-yl)piperidine-1-carbonyl]phenyl}prop-2-enamide]",103.735
15,"C=CC(=O)N[C@@H](C)c1ccccc1OC [1-K06, N-[(1S)-1-(2-methoxyphenyl)ethyl]prop-2-enamide]",89.6861
16,"N#CC(=Cc1cccc2ccccc12)C(=O)NC1CC1 [9-O03, 2-cyano-N-cyclopropyl-3-(naphthalen-1-yl)prop-2-enamide]",97.2808
17,"C=CC(=O)NC1COC(C)C1 (centres unmarked) [1-H17, N-(5-methyloxolan-3-yl)prop-2-enamide]",87.4439
18,"C=CC(=O)N1CCC(c2ncc(C(=O)O)o2)CC1 [2-G19, 2-[1-(prop-2-enoyl)piperidin-4-yl]-1,3-oxazole-5-carboxylic acid]",94.519
19,"COc1cccc(NC(=O)C(C#N)=Cc2ccc(C#N)cc2)c1 [8-G18, 2-cyano-3-(4-cyanophenyl)-N-(3-methoxyphenyl)prop-2-enamide]",67.913
20,"C=CC(=O)N1CCC(C(=O)N2CCC(Cc3ncon3)CC2)CC1 [2-J06, 1-(4-{4-[(1,2,4-oxadiazol-3-yl)methyl]piperidine-1-carbonyl}piperidin-1-yl)prop-2-en-1-one]",91.7398
21,"CC(Cl)C(=O)N(Cc1cnn(C)c1)c1ccc(F)cc1 (centres unmarked) [6-P11, 2-chloro-N-(4-fluorophenyl)-N-[(1-methyl-1H-pyrazol-4-yl)methyl]propanamide]",104.048
22,"Cc1cccc(Cl)c1CCCNC(=O)CCl [7-F04, 2-chloro-N-[3-(2-chloro-6-methylphenyl)propyl]acetamide]",91.9874
